# Measured values reported in patent publication US20110212845A1, “Biomarkers for predicting the sensitivity and response of protein kinase CK2-mediated diseases to CK2 Inhibitors” (priority 2009, published 2011).
# How the values were obtained:
# [1] = tested on: BT-474 breast cancer and BxPC-3 pancreatic cancer cells; experiment: PI3K/Akt signaling in BT-474 and BxPC-3 cells; type: cell-based; conditions: increasing concentrations; both cell types
# [2] = tested on: HIF-1α; experiment: HIF-1α luciferase reporter assay; conditions: increasing concentrations
# [3] = tested on: SUM-149PT xenografts; experiment: Human IL-6 plasma levels in mice bearing SUM-149PT xenografts; type: in vivo; conditions: 75 mg/kg PO BID×8d; normalized for tumor weight
# Protocol: The effect of CK2 inhibitors on the secretion of IL-6 by aggressive SUM-149PT xenografts was also studied.
# Plasma was isolated, tumors were extracted and weighted. Human IL-6 levels in plasma were determined by ELISA and resulted values were normalized for tumor weight.
# [4] = tested on: BxPC-3 cells; experiment: Tube formation and migration; type: cell-based; conditions: increasing concentrations
# [5] = tested on: CK2 kinase activity in U266, RPMI, OCI-MY1 and KMS11 multiple myeloma cell lines; experiment: In vitro kinase assay of CK2 activity in multiple myeloma cell lines; conditions: 10 μM; compared to untreated cells
# [6] = tested on: human multiple myeloma cells; experiment: CK2 signaling in human multiple myeloma cells; type: cell-based
# [7] = tested on: Akt S129 phosphorylation; experiment: Akt S129 phosphorylation with washout; conditions: 10 μM, 4 and 8 hours
# [8] = tested on: Akt-S129, Akt-S473 and p21-T145 phosphorylation in PBMCs; experiment: Phase I clinical study, phospho-biomarkers in PBMCs; type: in vivo, human; conditions: as a function of cumulative AUC
# Protocol: Oral doses are administered twice daily for twenty-one consecutive days of a four week cycle. […] Response by RECIST is determined after every 2 cycles. Serial blood and plasma samples are collected on the first and final dosing days of Cycle 1 (i.e., Day 1 and Day 21) for pharmacokinetic analysis and for pharmacodynamic biomarker evaluations (specifically, total and phosphorylated forms of p21 and Akt).
# Oral doses are administered four times daily for twenty-one consecutive days of a four week cycle. […] Response by RECIST is determined after every 2 cycles. […]
# In addition, PBMCs were isolated to analyze p21 Total, p21-T145, Akt Total, Akt-T129, and Akt-S473 at time 0, 4 and 8 hours post dose on Day 1 and Day 21. PBMCs were analyzed as a whole and also separated into phenotypes (CD19, CD45). For each time point, the ratio of p21-T145/Total p21, Akt-S129/Total Akt, and Akt-S473/Total Akt was calculated.
# In addition, PBMCs were isolated to analyze, p-p21-T145, p-Akt-S129, and p-Akt-S473 at time 0, 4 and 8 hours post dose on Day 1 and Day 21 for the BID dosing schedule and at time 0, 2, 4 and 6 hours post dose on Day 1 and Day 8 for the QID dosing schedule. PBMCs were analyzed as a whole and also separated into phenotypes (CD19, CD45).
structure (smiles),measurement,setting,value
O=C(O)c1ccc2c(c1)nc(Nc1cccc(Cl)c1)c1ccncc12 [CX-4945],"levels of p-Akt S129, p-Akt S473 and p-p21 T145",[1],"reduced the levels of p-Akt S129 and p-Akt S473, as well as p-p21 T145"
same,HIF-1α activity (luciferase reporter),[2],decreasing activity of HIF-1α
same,reduction of human IL-6 levels in plasma,[3],58%
same,tube formation and migration,[4],significant effects on tube formation and migration
same,CK2 kinase activity in multiple myeloma cell lines,[5],significantly reduced CK2 kinase activity
same,PARP cleavage (marker for cell apoptosis),[6],increase PARP cleavage
same,phosphorylation of Akt S129 and S473,[6],reduced the phosphorylation of p-Akt S129 and S473
same,phosphorylation of NF-κB S529,[6],reduced the phosphorylation
same,phosphorylation of STAT3 Y705 and JAK2 Y1007/1008,[6],reduce the phosphorylation of p-STAT3 Y705 and p-JAK2 Y1007/1008
same,reversibility of inhibition of Akt S129 phosphorylation,[7],reversible
same,"phosphorylation of Akt-S129, Akt-S473 and p21-T145 in patient PBMCs",[8],decreases in a clear exposure-related (AUC) manner
